According to PMC4336329 (PLoS ONE, 2015):
Out of some 310,000 compounds screened, about 2,200 (0.71%) showed an effect of 50% or more. Effects have a minus sign here. This is one part of the list.

These molecules were tested against human ether-à-go-go-related gene (hERG) potassium channel (human, UniProt Q12809) (assay: primary screen, population patch clamp on CHO cells stably expressing hERG).
human ether-à-go-go-related gene (hERG) potassium channel, sequence (Q12809 whole entry, looked up): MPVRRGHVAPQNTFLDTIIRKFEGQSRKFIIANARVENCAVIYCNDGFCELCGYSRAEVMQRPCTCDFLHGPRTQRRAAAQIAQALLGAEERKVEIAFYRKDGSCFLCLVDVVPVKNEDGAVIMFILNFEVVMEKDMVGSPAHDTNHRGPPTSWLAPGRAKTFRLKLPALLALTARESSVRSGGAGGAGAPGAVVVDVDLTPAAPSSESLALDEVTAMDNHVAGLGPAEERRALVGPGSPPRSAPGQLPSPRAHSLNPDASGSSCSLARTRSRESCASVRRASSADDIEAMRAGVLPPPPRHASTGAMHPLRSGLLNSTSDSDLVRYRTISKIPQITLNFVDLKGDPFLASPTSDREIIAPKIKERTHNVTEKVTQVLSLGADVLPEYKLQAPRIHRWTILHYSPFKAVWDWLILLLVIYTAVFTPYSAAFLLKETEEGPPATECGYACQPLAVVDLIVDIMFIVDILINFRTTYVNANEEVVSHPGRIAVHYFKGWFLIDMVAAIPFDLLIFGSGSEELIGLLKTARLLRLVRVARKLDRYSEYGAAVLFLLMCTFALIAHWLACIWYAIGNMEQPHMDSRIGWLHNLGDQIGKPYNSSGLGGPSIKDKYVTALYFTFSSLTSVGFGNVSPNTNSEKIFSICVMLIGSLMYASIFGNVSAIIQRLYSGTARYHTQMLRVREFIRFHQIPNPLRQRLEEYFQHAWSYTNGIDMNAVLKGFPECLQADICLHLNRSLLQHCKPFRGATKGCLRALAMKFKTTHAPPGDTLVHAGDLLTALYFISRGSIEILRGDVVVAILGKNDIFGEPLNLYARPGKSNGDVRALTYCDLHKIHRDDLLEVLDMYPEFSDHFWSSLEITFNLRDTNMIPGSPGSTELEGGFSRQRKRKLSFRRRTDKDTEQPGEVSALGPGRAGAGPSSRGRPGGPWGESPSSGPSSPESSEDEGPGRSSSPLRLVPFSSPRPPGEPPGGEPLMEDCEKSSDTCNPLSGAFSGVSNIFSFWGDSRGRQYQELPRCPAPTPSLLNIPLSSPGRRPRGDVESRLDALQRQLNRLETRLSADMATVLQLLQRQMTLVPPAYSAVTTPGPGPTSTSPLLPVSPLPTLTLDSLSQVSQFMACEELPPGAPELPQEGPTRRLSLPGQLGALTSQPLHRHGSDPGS

| SMILES | hERG current change (%, negative = inhibition) at 1uM [%] |
| --- | --- |
| Nc1ncnc(Oc2cccc3cccnc23)c1[N+](=O)[O-] | 19.3 |
| Cc1ccc(-n2c(=O)cc(N3CC(C)CC(C)C3)[nH]c2=O)cc1 (centres unmarked) | 20.8 |
| CCS(=O)(=O)N1CCN(c2ccc(S(=O)(=O)N3CCOCC3)cc2)CC1 | 6.36 |
| CN(Cc1nc(-c2ccc(Cl)cc2)no1)C(=O)CCN1C(=O)[C@H]2CC=CC[C@H]2C1=O | 1.2 |
| COc1ccc(-n2c(SCC(=O)NC3CC3)nc3ccccc3c2=O)cc1OC | 13.2 |
| CCc1nnc(NC(=O)c2cnccn2)s1 | 9.02 |
| COc1ccc(C2CC(c3ccccc3)=NN2C(=O)CCCC(=O)O)cc1 (centres unmarked) | 19.9 |
| C/C(CC(=O)Nc1ccccc1-c1ccccc1)=N\NC(=O)COc1ccc(C)cc1Br | 5.83 |
| COc1ccc(/C=C/C(=O)C2C(=O)C=C(C)OC2=O)cc1O (centres unmarked) | 6.77 |
| S=C1CN=C(c2ccccc2)c2cc(Cl)ccc2N1 | 9 |
| Cc1ccc(SCC(=O)N2N=CCC2c2ccccc2)cc1 (centres unmarked) | 1.32 |
| COc1cccc2sc(Nc3nnc(-c4ccccc4Cl)o3)nc12 | 12.7 |
| Oc1c(Br)cc(/C=N/NC(=S)NCC2CCCO2)cc1Br (centres unmarked) | 13.5 |
| C=CCc1ccc(OCCCCNC2CCCC2)c(OC)c1.O=C(O)C(=O)O | -8.29 |
| CCOC(=O)CSc1nnc([C@H](Cc2ccccc2)NC(=O)OC(C)(C)C)o1 | -0.863 |
| Cc1ccc(C(=O)OCC(=O)Nc2ccc(Cl)cn2)s1 | 8.79 |
| CCn1c(Sc2ccc([N+](=O)[O-])cn2)nnc1-c1ccco1 | -23.8 |
| COc1ccc(N2C(=O)CNC2=S)cc1 | 8.58 |
| Cc1ccc(C)c(NS(=O)(=O)c2ccc(OCC(=O)NCc3ccccn3)cc2)c1 | 10 |
| Cc1ccc2c(CC(=O)NCCc3ccc(S(N)(=O)=O)cc3)coc2c1 | 7.43 |
| Cc1ccc(OCc2n[nH]c(=S)n2N)cc1C | 13.3 |
| CC1CC(C)CN(S(=O)(=O)CC23CCC(CC2=O)C3(C)C)C1 (centres unmarked) | 15.4 |
| C#CCOCCOCCOCCNc1nc(N2CCN(C(=O)C([C@@H](C)CC)n3cc(C(N)Cc4ccc(O)cc4)nn3)CC2)nc(N2CCN(C(=O)[C@H](CCC(=O)O)n3cc(C(N)CO)nn3)CC2)n1.Cl (some centres unmarked) | 10.5 |
| NNc1nnnc2c1sc1nc(N3CCOCC3)c3c(c12)CCCC3 | -0.882 |
| O=C(c1c[nH]c(C(=O)C(Cl)(Cl)Cl)c1)c1ccc(F)cc1F | 0.543 |
| CCOCCCNC(=O)c1oc2ccc(S(=O)(=O)N3CCOCC3)cc2c1C | 15.3 |
| CC1CN(C(=O)c2ccccc2C(=O)c2ncc[nH]2)CC(C)O1 (centres unmarked) | 10.1 |

| SMILES | hERG current change (%, negative = inhibition) at 1uM [%] |
| --- | --- |
| CCOc1ccccc1NC(=O)COC(=O)c1cccc(-c2ccc(OC(C)=O)cc2)c1 | 9.74 |
| CCCN1CCN(CCCNC(=O)CCCn2nc(C)c3sc4ccccc4c3c2=O)CC1 | 8.6 |
| Cc1cc(C)cc(C(=O)Nc2ccc(NC(=O)c3cccs3)cc2)c1 | -9.91 |
| Cc1ccc(S(=O)(=O)N2CCC(c3nc4c(nnn4Cc4ccccc4)c(=O)[nH]3)CC2)cc1 | 10.1 |
| CCN1CCN(CC(=O)Nc2cc(C)on2)CC1.O=C(O)C(=O)O | 6.23 |
| CC(=O)O[C@H]1C(=O)[C@@]2(C)[C@H]([C@H](OC(=O)c3ccccc3)[C@]3(O)C[C@H](OC(=O)[C@H](O)[C@@H](NC(=O)c4ccccc4)c4ccccc4)C(C)=C1C3(C)C)[C@]1(OC(C)=O)CO[C@@H]1C[C@@H]2O | 7.87 |
| COc1cc(NC(=O)CSc2nnnn2C2CCCC2)cc(OC)c1 | 10.6 |
| CCOC(=O)c1sc(=S)n2c1[nH]c(=O)c1ccc(C(=O)OC)cc12 | 6.91 |
| Cc1ccc(S(=O)(=O)N(CC(=O)NCCSc2ccccn2)c2cc(C)cc(C)c2)cc1 | -2.22 |
| O=C(O)c1ccc(CSc2nnc(-c3ccco3)o2)cc1 | 8.36 |
| CCSc1nnc(NC(=O)CSc2nnc(CNC(=O)c3cc(OC)c(OC)c(OC)c3)o2)s1 | 17.8 |
| c1ccc(-c2n[nH]nc2-c2ccccc2)cc1 | -1.43 |
| O=C(O)COc1ccc(S(=O)(=O)c2ccc(OCC(=O)O)cc2)cc1 | -8.01 |
| C=CCc1cc(C=O)cc(OC)c1OCc1c(Cl)cccc1Cl | -6.15 |
| O=C(Nc1ccccc1)C1=C[C@@H](c2ccc3c(c2)OCO3)C[C@@H](OCCCCO)O1 | 7.59 |
| S=c1[nH]nc(-c2ccncc2)n1/N=C/C(Cl)=C\c1ccccc1 | 17.3 |
| O=C(NC(=S)NNC(=O)c1cccs1)c1ccc(Br)o1 | 18.4 |
| CCc1cccc(NC(=S)N(CCCN2CCOCC2)C(C)c2cc3cccc(OC)c3o2)c1 (centres unmarked) | 10.5 |
| O=C(O)CC1S/C(=N/N=C/C=C/c2ccccc2[N+](=O)[O-])NC1=O (centres unmarked) | 13.2 |
| Cn1cc(SCC(=O)Nc2ccc3c(c2)OCO3)c2ccccc21 | 2.66 |
| COc1ccc(S(=O)(=O)N2CCOCC2)cc1NC(=O)CCc1nc2ccccc2c(=O)[nH]1 | 3.32 |
| COc1ccc(C(=O)Nc2cccnc2Cl)cc1OC | 16.8 |
| CCCCNC(=O)C1CCCN(S(=O)(=O)CC)C1 (centres unmarked) | 5.46 |
| Cc1ccc(NC(=O)c2cc(C(=O)c3cc(Cl)ccc3O)cn(-c3ccc(C)cc3)c2=O)cc1 | 10.9 |
| Cc1cc(C(=O)Nc2ccccc2C)c2ccccc2n1 | 10.8 |
| COc1ccc(-c2cc3ccccc3oc2=O)cc1NC(=O)c1ccc(Br)o1 | -4.09 |
